The source gives no read counts; variants with many changes may rest on few reads.
B1: OR4K15 (parent)
chain: GUUAACGGUCAUAGGCCAUGGAAACUAGGAGCACCAUUUCGCUGCCAGUGAAGAAAUGAACAAAGAAAAUCUGGGCCAGGCAGGCAUCAAAAGAAAUAGUCUUGCGCUCAACCAGAAAGUCUGUAAUCAUUUUAAGGGUA

Variants of: B1
Test: self-cleavage, relative activity (ratio to wild type); higher = more cleavage; in vitro, sequencing; the parent is a self-cleaving ribozyme

Variant | self-cleavage
A52G A90G A125G U131C | 0.1
U43A U108C U120C A126G | 0
U38C A62U A126G | 1.17
U38C A56G A62U | 1.48
A11G U19C A90G | 0.82
U38C A51G A63G U130G | 1.75
A47U A78U A126G | 0.17
A94G U100C U124A | 1.01
C34U U43A U139C | 1.87
A13G A69G A96U | 0.59
A5G A78G A96U A117U | 0
A30G U37C A91G | 1.17
A13U U37C A68G A96G | 1.38
A96G A134G A135G | 1.49
A47U U70C A118G U122C | 0.08
G7A A62G A67G A69G U72C U97A U120C | 0.08
A51U A69G A95G | 0.96
A36U A63G U72A A91G U103C | 0.1
A23G A59G G65U | 1.48
A18G G28A A96G A114U A118G | 0.09
A18G A24C A30G A125G | 0.33

Variant | self-cleavage
U2C A82G U131C | 0.59
A64G G106A U120A | 0.03
A64G U108C A117G | 0.01
A11G A86G A96G | 1.29
U9C U37A A67G A117U | 1.35
A23U A86G U108C | 0.02
U37C U70C G93U | 1.04
U43C A55G C85U U122C U130A U131C | 0.74
U19A G41A U43A A59G U102C A116G | 0.53
A24G U87C A91G U122C U132C | 0.54
A55G A89G U103C | 0.19
U38A A52G C109U U120C | 0.16
A18U U19A A30U A118U U130C | 0.5
A63G A68G A111U | 0.1
A23G A59G U72C | 0.31
A55G G75A A116U | 0.03
G65A A116G U132C | 0.25
A18G A51C A82G A90G A111G A126G | 0.02
A30U U120C A126G | 0.28
U37C A56G A98G | 0.96
A24G U49A U127A | 1.94

Variant | self-cleavage
A5C A51G A52G A78G U131C | 0.38
A27G A30G G73U A86U | 0
U9C U87A U108C | 0.04
A22G U49C A114G A134G | 0.3
A56G U100C U127C | 2.25
A22G A56G U100C | 2.62
U49A U87C U100A | 0.3
U19C A22G U43C A55G | 0.93
A78G C81U A96G | 0.05
A5U A22G A30G U132A | 0.43
A67G A90G C113G | 0
A24C A60G C105U A118G U127C U132C | 0
C34U A56U A118G | 1.12
U39C A69G A86G A140G | 1.14
A13U A95G A126G | 1.82
A51G A60G U102C | 1.9
A18G A22G A27U U37C U87C | 0.36
U19C A52G U131C | 0.95
U43C A96G A117G U131C | 1.56
A5G U72C A86G A95U A110G | 0.04
A13G U37C A51G | 1.09

Variant | self-cleavage
U12A A63G U102C | 1.29
U2C A51U A82G A86G U103C | 1.32
A18G A67G A96G | 1.62
A64G U122C A129G | 1.4
A59G U131C U132C | 0.12
A52G A116G U130C | 0.8
A11G U37C A52U | 0.9
A24G G93A U132C | 0.98
G7A A52G A66G | 1.9
G8A U19C U39C A54G U122C U133C | 1.08
A36G A47U A117G | 1.18
A60C U87C U122C U127C | 0.72
G29U A52G A59U A114G | 0.1
G50U A62G A129G | 1.03
A47G A52G A67G | 1.41
U39C A47G A92G U130C U131C | 0.1
A55G U102C A111G C113U | 0.01
C10A A11U A118G A125G | 0.21
U57G A94G U103C | 0.41
A90G A98G U124C | 0.31
A59G A89U A98G U108C A129U | 0

Reference: the RNAGym collection of RNA variant scans (doi:10.7554/elife.90254)
